# Reference: PubChem BioAssay AID2202238 (Ras Initiative Chemistry Research Team, Frederick National …, 2025)
# Some of the results follow. The main result of the screen is listed elsewhere. These columns were measured beside it and carry no call.
# Target: GTPase KRas (Homo sapiens) (UniProt P01116)
# Assay: Fragment capture on engineered cysteines, share of protein labelled (AID 2202238)
# Design: protein at 5 µM with 500 µM competing thiol for 1.5 h
# Conditions: KRAS G12D cysteine mutants, disulfide tethering, MALDI-TOF labeling, stronger effect = higher value, fragment at 500 µM
# [1] = measured here: G75C mutant labeling
# [2] = measured here: H94C mutant labeling
# [3] = measured here: I36C mutant labeling
# [4] = measured here: L120C mutant labeling
# [5] = measured here: M67C mutant labeling
# [6] = measured here: M72C mutant labeling
# [7] = measured here: N86C mutant labeling
# [8] = measured here: P121C mutant labeling
# [9] = measured here: S122C mutant labeling
# [10] = measured here: S136C mutant labeling
# [11] = measured here: G60C mutant labeling
# [12] = measured here: N26C mutant labeling
# UniProt P01116, sequence (P01116 whole entry, looked up, the tested form may be a part): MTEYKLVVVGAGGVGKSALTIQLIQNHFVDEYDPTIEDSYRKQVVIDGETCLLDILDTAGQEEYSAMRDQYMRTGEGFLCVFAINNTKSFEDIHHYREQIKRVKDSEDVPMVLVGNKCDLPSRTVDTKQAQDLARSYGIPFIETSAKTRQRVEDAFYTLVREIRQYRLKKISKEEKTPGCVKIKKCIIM
SMILES,percent labeling [1] [%],percent labeling [2] [%],percent labeling [3] [%],percent labeling [4] [%],percent labeling [5] [%],percent labeling [6] [%],percent labeling [7] [%],percent labeling [8] [%],percent labeling [9] [%],percent labeling [10] [%],percent labeling [11] [%],percent labeling [12] [%]
O=C(CCS)Nc1cc2ccccc2nc1Cl,26.3,14.1,12.6,10.4,13.2,37.5,9.3,13,9.4,22.4,,
O=C(NCCS)c1cc2c(=O)[nH]c3ccccc3c2s1,8.6,11.6,28.3,13.9,11.2,82.6,12.6,9.3,9.1,25.1,44.4,20.9
O=C(CCS)NCCn1ccc(=O)[nH]c1=O,9.4,21.5,36,31.4,26.9,11.3,19.7,35.1,37.7,52.1,,
O=C(CCS)NCc1ccc(Oc2cccnc2)c(F)c1,20.6,39.2,42.4,36.5,46.1,58.7,32.9,33,28.1,47.7,,
CCn1c(=O)[nH]c2cc(C(=O)NCCS)ccc2c1=O,12.9,16.7,9.3,16.2,12,23.2,14.8,12.3,10,16.9,16.6,31.7
Cc1c(C(=O)NCCS)nnn1-c1cccc2c1CCN(C)C2,36.4,43.9,39.1,43.5,43,75.6,32.8,36.6,25.9,52.9,60.3,54.3
O=C(CCS)Nc1c(F)cccc1-n1cccn1,14.8,37.7,41.4,30.5,35.2,33.1,30.4,36.8,40.7,51,,
CC1(C)CCCN1C1CCN(C(=O)CCS)CC1,15.4,33.4,43,29.4,44.1,15,22.1,29.8,27,54.8,,
Cc1oc(-c2cccs2)nc1C(=O)NCCS,19,15.8,8.2,16.2,8.2,32,8.3,12.1,9.7,20.3,24.4,26.8
O=C(CCS)N1CCC(Oc2cncc(Cl)c2)CC1,17.1,33.7,37.6,29,45.1,32.3,16.9,34.6,32.1,52.1,,
O=C(CCN1C(=O)CCc2cc(F)ccc21)NCCS,16,30.5,24,35.7,38.1,38.7,21.6,33.8,29.1,48.5,49.1,24.6
Cc1ccc(OCc2cccc(C(=O)NCCS)c2)cn1,12.1,22.7,15,20.3,19.1,35.8,13.3,14.5,13.2,22.7,30.7,42
Cn1cc(N2CCCC(N3CCN(C(=O)CCS)CC3)C2=O)cn1 (configuration not stated),13.4,22.8,30.3,26,38.3,17.5,22.6,25.1,38,50.1,,
CN1CCC(c2cccc(NC(=O)CCS)c2)CC1,19.1,51.1,46.6,35.4,50.7,49.9,24.4,31.1,33.2,56.4,,
CC(C(=O)N(C)CC(=O)NCCS)n1cccn1 (configuration not stated),8.3,25.3,18.1,35.5,26.4,9.2,23.9,29.3,29.2,37,19.9,28.2
CCNC(=O)c1cccc(NC(=O)CCS)c1,16.3,30,38.3,32.7,23.8,30.2,33,31.5,37.2,48.6,,
O=C(NCCS)C1(O)CCC(C(F)(F)F)CC1 (configuration not stated),19.2,36.5,23.7,41.6,30.8,39.2,36.6,32.8,35.2,45,41,37.3
O=C(CCS)Nc1ccc2c(c1)CCC(=O)N2,13.4,31,41.5,30.6,26.9,40.2,24.9,21.9,26,41.6,,
O=C(CCS)Nc1cccc(Oc2ccccc2)c1,13.6,14.6,14.3,18.6,23.5,33.3,9.6,16.7,10.8,34.7,,
O=C(CCS)NCCCC(=O)Nc1cn[nH]c1,12.6,28.8,45,35.5,32.3,15.5,30.4,32.2,37.9,51.1,,
CC(C)(C(=O)NCCS)c1ccc(C(F)(F)F)cc1,11.9,23.8,8.9,22.7,14.2,16.3,11.9,17.7,15.5,20.3,29.6,25.4
O=C(CCS)Nc1ccc(F)cc1Cn1ccsc1=O,19.3,47.9,41.4,36.7,36.2,39.5,30.7,33.9,30,57.4,,
Cc1nn(-c2ccccc2)c(C)c1C(=O)NCCS,13.1,27,23,24.6,28,33.4,22.9,56.1,24.2,37.6,36.5,42.7
O=C(Nc1sccc1C(=O)NCCS)c1ccc2c(c1)CCC2,11.5,15.1,16.7,11.9,7.1,41.4,3.4,9,2.5,12.7,29.9,16.4
